Data published in PubChem BioAssay AID662 (National Center for Advancing Translational Sciences (NCATS), 2007).
Among all 71,000 compounds or so, about 1,800 (2.5%) were called active. This list was built around the results that the source calls inconclusive (neither active nor inactive); the mix of calls is not that of the screen. Calls follow the shape of the dose curve; as a rule, active = well fitted activation curve with a large enough effect in the signal ratio, with a control signal flat (not every such curve was filed as active); inconclusive = small, poorly fitted or top-dose-only effect, or effect the other way, or a change in a side signal; inactive = flat fitted curve, though single readings scatter; the % refers to the signal ratio. A potency beside an inconclusive call is a rough fit, not a confirmed value.

Assay: Cell signaling CRE-BLA (Fsk stim); as to activity change, negative = inhibition: % of control where 0% means no effect
Conditions: CHO CRE-bla reporter (cAMP response element driving beta-lactamase), forskolin EC10, beta-lactamase ratio; activity change, negative = inhibition: at 38.2 µM (top of the series) unless noted
Summary of the method: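 CRE-bla CHO reporter cells treated with compound titration plus EC10 NKH 477 (water-soluble forskolin), incubated 3 h at 37 °C; CCF4 loading 2 h at room temperature, 460/530 nm emission ratio read, AC50 values derived for positive or negative modulators.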
Potency is read from the fitted curve at half-maximal effect; tags tell the direction and shape of the fitted curve.

Row | SMILES | activity change, negative = inhibition | Potency
1 | CC(C)(C)NC(=O)Cn1cc(C#N)c2cc(Br)ccc21 | inconclusive: -3.87% | –
2 | O=C(NCCC1=CCCCC1)N[C@@H](Cc1ccccc1)C(=O)O | inconclusive: -20.5% | –
3 | COc1ccccc1N1CSC2=C(C#N)C(c3ccc(SC)cc3)CC(=O)N2C1 (stereo not drawn) | inactive | –
4 | OCc1cc([C@@H](O)CNCCCCCCOCCCCc2ccccc2)ccc1O | inactive | –
5 | CCCCNC(=O)c1ccc2c(c1)ncn2C1CCCCC1 | – | inconclusive: 7.94 µM [rising, partial curve]
6 | CC1=C(C(=O)OC2CCCCCCC2)C(c2ccc(O)cc2)NC(=O)N1 (stereo not drawn) | inactive | –
7 | Cc1ccc(-c2nnn(CC(=O)N(Cc3cccs3)C(C(=O)NC(C)(C)C)c3ccc(C)o3)n2)o1 (stereo not drawn) | inconclusive: -14.3% | –
8 | COc1ccc(NC(=O)c2ccco2)cc1NC(=O)c1cccnc1 | inactive | –
9 | CCOc1cc(S(=O)(=O)n2cc(-c3ccc(F)cc3)c(N)n2)cc(OCC)c1OCC | – | inconclusive: 12.6 µM [rising, single point]
10 | CN1CC[C@@]2(CCCN(C(=O)c3cccn3C)C2)C1 | inactive | –
11 | CN(C)c1ncc2nc(-c3cn(C)c4ccccc34)c(=O)n(C[C@H]3CCCO3)c2n1 | – | active: 2 µM
12 | Cn1cccc1C(=O)N1CCC[C@@]2(CCN(c3ncccn3)C2)C1 | inactive | –
13 | O=C1Nc2ccc(S(=O)(=O)NCCC3=CCCCC3)c3cccc1c23 | – | inconclusive: 25.1 µM [rising, single point]
14 | CCN1CCC[C@@H]1CNC(=O)c1c(OC)ccc(I)c1O | inactive | –
15 | CCOc1cccc(C=Nc2cc(C)cc(C)c2O)c1O | inconclusive: -17.9% | –
16 | Cc1nc2cc(NC(=O)N3CCN(c4ccccn4)CC3)ccc2o1 | inactive | –
17 | COc1ccc(OC)c(-c2cc(C(=O)N3CCc4ccccc4C3)no2)c1 | – | active: 5.01 µM
18 | COc1cc(NC(=O)C(C)Oc2ccccc2)cc(OC)c1 (stereo not drawn) | inactive | –
19 | FC(F)(F)c1ccccc1-c1nccc(NCc2ccccc2)n1 | inactive | –
20 | COCCn1c(=O)c(-c2cccs2)nc2cnc(Oc3ccc(OC)cc3)nc21 | – | active: 10 µM
21 | COc1cc(C2c3c(n[nH]c3C)C(=O)N2c2ccc(Br)cc2)ccc1O (stereo not drawn) | – | inconclusive: 1.26 µM [falling, full curve]
22 | COC(=O)Sc1nnc(-c2ccc(Br)cc2)o1 | inactive | –

Row | SMILES | activity change, negative = inhibition | Potency
23 | Cc1cnc(NC(=O)C(C)N2C(=O)C3CC=CCC3C2=O)s1 (stereo not drawn) | inconclusive: -14% | –
24 | CCCCc1c2ccccc2nc2[nH]c3ccccc3c12 | – | active: 5.01 µM
25 | Cc1ccc(NC(=O)N2CCCC2C(=O)NCCc2ccccc2)cc1 (stereo not drawn) | inactive | –
26 | CN1CCN(c2ccc(Cl)cc2NC(=O)c2ccc(S(=O)(=O)N3CCCCCC3)cc2)CC1 | inconclusive: 9.43% | –
27 | C[C@@]12C(=O)OC(=O)[C@@]1(C)[C@@H]1CC[C@@H]2O1 | – | inconclusive: 7.94 µM [falling, full curve, poor fit]
28 | COc1ccc2c(c1)CCc1cc(C(=O)N3CCN(c4ccc(N5CCOCC5)nn4)CC3)sc1-2 | – | inconclusive: 3.16 µM [rising, partial curve]
29 | COc1ccc2nc3oc(C(=O)N4CCN(c5cccc(Cl)c5)CC4)cc3cc2c1 | – | inconclusive: 10 µM [rising, single point]
30 | CCCOc1ccc(NC(N)=O)cc1OCCC | – | inconclusive: 12.6 µM [rising, single point]
31 | Cc1ccc(C23CC4CC(CC(NC(=O)N5CCN(C)CC5)(C4)C2)C3)cc1 | inactive | –
32 | CCCn1c(C)nc2c(NCCCCN3CCCC3)nc(C)nc21 | inactive | –
33 | COCCn1c(=O)c(CCc2ccccc2)nc2cnc(N3CCNCC3)nc21 | – | inconclusive: 25.1 µM [rising, single point]
34 | CCCC(c1nnnn1C(C)(C)CC)N1CCN(C2CCCC2)CC1 (stereo not drawn) | inactive | –
35 | CCOC(=O)C1CCCN(C(=O)c2cn(CC(C)C)c(=O)c3cc(OC)c(OC)cc23)C1 (stereo not drawn) | – | inconclusive: 12.6 µM [rising, partial curve]
36 | CCOc1ccc2nc3sc(C(=O)N4CCN(C)CC4)c(N)c3cc2c1 | – | inconclusive: 10 µM [rising, single point]
37 | Cc1ccc2c(c1)NC(=O)C(CC(=O)NCCCN1CCCC1)O2 (stereo not drawn) | inactive | –
38 | Cn1cc(CN2CCN(c3ccccc3)CC2)c2ccccc21 | – | inconclusive: 31.6 µM [falling, single point]
39 | COc1ccc(C)cc1S(=O)(=O)N(CC(=O)O)c1ccccc1 | inactive | –
40 | CN1CCN(c2ncc3nc(-c4cccs4)c(=O)n(-c4ccccc4)c3n2)CC1 | – | inconclusive: 1.58 µM [rising, full curve]
41 | CC1CCCC(C)N1C(=O)c1cc(-c2ccc(Cl)c(Cl)c2)on1 (stereo not drawn) | inconclusive: 9.5% | –
42 | CCCOc1ccc2ccccc2c1/C=N/n1cnnc1 | – | active: 1 µM
43 | COc1ccc(S(=O)(=O)n2nc(OC(=O)c3ccc(C)cc3)cc2N)cc1 | inactive | –
